Biological target: SARS-CoV-2 RdRp (nsp12 in complex with nsp7 and nsp8) (Severe acute respiratory syndrome coronavirus 2, UniProt P0DTD1)
Details: highest concentration tested: 100 µM

Row | SMILES | inhibition of RNA synthesis by the RdRp
1 | COC(=O)C[C@H](NC(=O)OC(C)(C)C)C(=O)N(Cc1ccccc1)C1(C(=O)NCc2ccccc2)CCN(Cc2ccccc2)CC1 [Compound 1] | did not detect any significant inhibition
2 | COC(=O)C[C@H](NC(=O)OCc1ccccc1)C(=O)N(Cc1ccccc1)C1(C(=O)NCc2ccccc2)CCN(Cc2ccccc2)CC1 [Compound 33] | did not detect any significant inhibition
3 | COC(=O)C[C@H](NC(=O)OCc1ccccc1)C(=O)N(Cc1ccc(F)cc1)C1(C(=O)NCc2ccccc2)CCN(Cc2ccccc2)CC1 [Compound 34] | did not detect any significant inhibition
4 | CC(C)(C)OC(=O)N[C@@H](Cc1ccccc1)C(=O)N(Cc1ccccc1)C1(C(=O)NCc2ccccc2)CCN(Cc2ccccc2)CC1 [Compound 46] | did not detect any significant inhibition
5 | Cc1ccc(CC(NC(=O)OC(C)(C)C)C(=O)N(Cc2ccccc2)C2(C(=O)NCc3ccccc3)CCN(Cc3ccccc3)CC2)cc1 (stereo not shown) [Compound 52, Tert-butyl(1-(benzyl(1-benzyl-4-benzylcarbamoylpiperidin-4-yl)amino)-1-oxo-3-(p-tolyl)propan-2-yl)carbamate] | did not detect any significant inhibition
6 | CC(C)(C)OC(=O)NC(Cc1ccccc1)C(=O)N(Cc1ccccc1)C1(C(=O)NCc2ccccc2)CCN(Cc2ccc(F)cc2)CC1 (stereo not shown) [Compound 60, Tert-butyl(1-(benzyl(4-benzylcarbamoyl-1-(4-fluorobenzyl)piperidin-4-yl)amino)-1-oxo-3-phenylpropan-2-yl)carbamate] | did not detect any significant inhibition
7 | CC(C)(C)OC(=O)NC(Cc1ccccc1)C(=O)N(Cc1ccccc1)C1(C(=O)NCc2ccccc2)CCN(Cc2ccc([N+](=O)[O-])cc2)CC1 (stereo not shown) [Compound 63, Tert-butyl(1-(benzyl(4-benzylcarbamoyl-1-(4-nitrobenzyl)piperidin-4-yl)amino)-1-oxo-3-phenylpropan-2-yl)carbamate] | did not detect any significant inhibition
